# Test results reported in the supplement of paper PMC8728848.
# This is one part of the list.
# Experiments:
# Experiment in all cases: glycan array binding signal (z-score within array); higher = stronger binding
# Conditions in all cases: glycan notation: IUPAC condensed, linker removed
# [1] = biological target: Fuc(a1-2)[GalNAc(b1-3)]Gal
# Method in brief: (§1)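 Glycan array binding is given as a within-array Z-score, which can be read as non-binding when negative. The arrays, 3228 of them, came from the Consortium for Functional Glycomics database and were retained only where the protein sequence was available. Z-scores were averaged across arrays of the same protein sequence at different concentrations or buffers and across linkers.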
# [2] = biological target: Fuc(a1-3)GlcNAc
# Method in brief: as §1
# [3] = biological target: Fuc(a1-3)[Gal(b1-4)]Glc6S
# Method in brief: as §1
# [4] = biological target: Fuc(a1-3)[Gal(b1-4)]GlcNAc
# Method in brief: as §1
# [5] = biological target: Fuc(a1-3)[Gal(b1-4)]GlcNAc(b1-2)Man
# Method in brief: as §1
# [6] = biological target: Fuc(a1-3)[Gal(b1-4)]GlcNAc(b1-2)Man(a1-3)[Fuc(a1-3)[Gal(b1-4)]GlcNAc(b1-2)Man(a1-6)]Man(b1-4)GlcNAc(b1-4)GlcNAc
# Method in brief: as §1
# [7] = biological target: Fuc(a1-3)[Gal(b1-4)]GlcNAc(b1-2)Man(a1-3)[Fuc(a1-3)[Gal(b1-4)]GlcNAc(b1-2)Man(a1-6)]Man(b1-4)GlcNAc(b1-4)[Fuc(a1-6)]GlcNAc
# Method in brief: as §1
# [8] = biological target: Fuc(a1-3)[Gal(b1-4)]GlcNAc(b1-3)Gal(b1-3)[Fuc(a1-4)]GlcNAc
# Method in brief: as §1
# [9] = biological target: Fuc(a1-3)[Gal(b1-4)]GlcNAc(b1-3)Gal(b1-4)[Fuc(a1-3)]GlcNAc
# Method in brief: as §1
# [10] = biological target: Fuc(a1-3)[Gal(b1-4)]GlcNAc(b1-3)Gal(b1-4)[Fuc(a1-3)]GlcNAc(b1-3)Gal(b1-4)[Fuc(a1-3)]GlcNAc
# Method in brief: as §1
# [11] = biological target: Fuc(a1-3)[Gal(b1-4)]GlcNAc(b1-3)GalNAc
# Method in brief: as §1
# [12] = biological target: Fuc(a1-3)[Gal(b1-4)]GlcNAc(b1-6)GalNAc
# Method in brief: as §1
# [13] = biological target: Fuc(a1-3)[Gal(b1-4)]GlcNAc(b1-6)[Gal(b1-3)GlcNAc(b1-3)]Gal(b1-4)Glc
# Method in brief: as §1
# [14] = biological target: Fuc(a1-3)[Gal(b1-4)]GlcNAc6S
# Method in brief: as §1
# [15] = biological target: Fuc(a1-3)[Gal3S(b1-4)]Glc
# Method in brief: as §1
# [16] = biological target: Fuc(a1-3)[Gal3S(b1-4)]GlcNAc
# Method in brief: as §1
# [17] = biological target: Fuc(a1-3)[Gal3S(b1-4)]GlcNAc6S
# Method in brief: as §1
# [18] = biological target: Fuc(a1-3)[GalNAc(b1-4)]GlcNAc
# Method in brief: as §1
# [19] = biological target: Fuc(a1-3)[GalNAc(b1-4)]GlcNAc6S
# Method in brief: as §1
# [20] = biological target: Fuc(a1-4)GlcNAc
# Method in brief: as §1
# [21] = biological target: Fuc(b1-3)GlcNAc
# Method in brief: as §1
# [22] = biological target: Gal(a1-2)Gal
# Method in brief: as §1
# [23] = biological target: Gal(a1-3)Gal
# Method in brief: as §1
# [24] = biological target: Gal(a1-3)Gal(b1-3)GlcNAc
# Method in brief: as §1
# [25] = biological target: Gal(a1-3)Gal(b1-3)GlcNAc(b1-2)Man
# Method in brief: as §1
# [26] = biological target: Gal(a1-3)Gal(b1-3)GlcNAc(b1-2)Man(a1-3)[Gal(a1-3)Gal(b1-3)GlcNAc(b1-2)Man(a1-6)]Man(b1-4)GlcNAc(b1-4)GlcNAc
# Method in brief: as §1
# [27] = biological target: Gal(a1-3)Gal(b1-3)GlcNAc(b1-3)GalNAc
# Method in brief: as §1
# [28] = biological target: Gal(a1-3)Gal(b1-3)GlcNAc(b1-6)GalNAc
# Method in brief: as §1
# [29] = biological target: Gal(a1-3)Gal(b1-3)[Fuc(a1-4)]GlcNAc(b1-2)Man(a1-3)[Gal(a1-3)Gal(b1-3)[Fuc(a1-4)]GlcNAc(b1-2)Man(a1-6)]Man(b1-4)GlcNAc(b1-4)GlcNAc
# Method in brief: as §1
# [30] = biological target: Gal(a1-3)Gal(b1-4)Glc
# Method in brief: as §1
# [31] = biological target: Gal(a1-3)Gal(b1-4)GlcNAc
# Method in brief: as §1
# [32] = biological target: Gal(a1-3)Gal(b1-4)GlcNAc(b1-2)Man
# Method in brief: as §1
# [33] = biological target: Gal(a1-3)Gal(b1-4)GlcNAc(b1-2)Man(a1-3)[Gal(a1-3)Gal(b1-4)GlcNAc(b1-2)Man(a1-6)]Man(b1-4)GlcNAc(b1-4)GlcNAc
# Method in brief: as §1
# [34] = biological target: Gal(a1-3)Gal(b1-4)GlcNAc(b1-3)GalNAc
# Method in brief: as §1
# [35] = biological target: Gal(a1-3)Gal(b1-4)GlcNAc(b1-6)GalNAc
# Method in brief: as §1
# [36] = biological target: Gal(a1-3)Gal(b1-4)[Fuc(a1-3)]GlcNAc
# Method in brief: as §1
# [37] = biological target: Gal(a1-3)Gal(b1-4)[Fuc(a1-3)]GlcNAc(b1-2)Man(a1-3)[Gal(a1-3)Gal(b1-4)[Fuc(a1-3)]GlcNAc(b1-2)Man(a1-6)]Man(b1-4)GlcNAc(b1-4)GlcNAc
# Method in brief: as §1
# [38] = biological target: Gal(a1-3)GalNAc
# Method in brief: as §1
# [39] = biological target: Gal(a1-3)[Gal(a1-4)]Gal(b1-4)GlcNAc
# Method in brief: as §1
# [40] = biological target: Gal(a1-4)Gal(b1-3)GlcNAc(b1-2)Man(a1-3)[Gal(a1-4)Gal(b1-3)GlcNAc(b1-2)Man(a1-6)]Man(b1-4)GlcNAc(b1-4)GlcNAc
# Method in brief: as §1
# [41] = biological target: Gal(a1-4)Gal(b1-4)Glc
# Method in brief: as §1
# [42] = biological target: Gal(a1-4)Gal(b1-4)GlcNAc
# Method in brief: as §1
# [43] = biological target: Gal(a1-4)Gal(b1-4)GlcNAc(b1-2)Man(a1-3)[Gal(a1-4)Gal(b1-4)GlcNAc(b1-2)Man(a1-6)]Man(b1-4)GlcNAc(b1-4)GlcNAc
# Method in brief: as §1
# [44] = biological target: Gal(a1-4)Gal(b1-4)GlcNAc(b1-3)Gal(b1-4)Glc
# Method in brief: as §1
# [45] = biological target: Gal(a1-4)GlcNAc
# Method in brief: as §1
binder,measurement,setting,value
Banana lectin (Musa acuminata) (protein) MNGAIKVGAWGGNGGSAFDMGPAYRIISVKIFSGDVVDGVDVTFTYYGKTETRHYGGSGGTPHEIVLQEGEYLVGMAGEVANYHGAVVLGKLGFSTNKKAYGPFGNTGGTPFSLPIAAGKISGFFGRGGKFLDAIGVYLEPLEHHHHHH,glycan array binding signal (z-score),[1],-0.203
same,glycan array binding signal (z-score),[2],-0.214
same,glycan array binding signal (z-score),[3],-0.211
same,glycan array binding signal (z-score),[4],-0.202
same,glycan array binding signal (z-score),[5],-0.22
same,glycan array binding signal (z-score),[6],-0.201
same,glycan array binding signal (z-score),[7],-0.084
same,glycan array binding signal (z-score),[8],-0.185
same,glycan array binding signal (z-score),[9],-0.123
same,glycan array binding signal (z-score),[10],-0.237
same,glycan array binding signal (z-score),[11],-0.268
same,glycan array binding signal (z-score),[12],-0.216
same,glycan array binding signal (z-score),[13],-0.214
same,glycan array binding signal (z-score),[14],-0.204
same,glycan array binding signal (z-score),[15],-0.2
same,glycan array binding signal (z-score),[16],-0.198
same,glycan array binding signal (z-score),[17],-0.212
same,glycan array binding signal (z-score),[18],-0.132
same,glycan array binding signal (z-score),[19],-0.213
same,glycan array binding signal (z-score),[20],-0.17
same,glycan array binding signal (z-score),[21],-0.198
same,glycan array binding signal (z-score),[22],-0.228
same,glycan array binding signal (z-score),[23],-0.232
same,glycan array binding signal (z-score),[24],-0.227
same,glycan array binding signal (z-score),[25],-0.189
same,glycan array binding signal (z-score),[26],-0.19
same,glycan array binding signal (z-score),[27],-0.173
same,glycan array binding signal (z-score),[28],-0.189
same,glycan array binding signal (z-score),[29],0.245
same,glycan array binding signal (z-score),[30],-0.198
same,glycan array binding signal (z-score),[31],-0.106
same,glycan array binding signal (z-score),[32],-0.191
same,glycan array binding signal (z-score),[33],0.067
same,glycan array binding signal (z-score),[34],-0.214
same,glycan array binding signal (z-score),[35],-0.196
same,glycan array binding signal (z-score),[36],-0.222
same,glycan array binding signal (z-score),[37],-0.175
same,glycan array binding signal (z-score),[38],-0.2
same,glycan array binding signal (z-score),[39],-0.211
same,glycan array binding signal (z-score),[40],0.413
same,glycan array binding signal (z-score),[41],-0.195
same,glycan array binding signal (z-score),[42],-0.206
same,glycan array binding signal (z-score),[43],-0.174
same,glycan array binding signal (z-score),[44],-0.223
same,glycan array binding signal (z-score),[45],-0.208
